Measurements: the RNAGym collection of RNA variant scans (doi:10.7554/elife.90254)
Read counts are not given, so values of variants with three or more changes are uncertain.

B1: LINE1-full (parent)
chain: UACGUAGGUGGUUUUCCCCUGAUAGUGCUAAGGGGGCCUGGAAGUUUGGACUGGGCAGAGCUCAACACAGCGUGGCAAAGUGGCUGUGGCUAGACUGCCUCUCUGGAUUCCUCGUCACUCAGCAGGGCAUCUCUGAGAGAAAUGCC

Variants of: B1
Assay: self-cleavage, relative activity (ratio to wild type); higher = more cleavage; in vitro, sequencing; the parent is a self-cleaving ribozyme

Row | Variant | self-cleavage
1 | U14C U46C A117G | 1.53
2 | U14C U47A U87C | 0.27
3 | U14C A92G U102C A121C | 0.28
4 | U14C A24G U26C C66A | 0.45
5 | U14C A64G A67U U102C | 0
6 | U14C U47C A78G C103U G135U | 1.84
7 | U14C G75U U96C C111U U130C | 0.08
8 | U14C A69G A136C | 1.11
9 | U14A U62G A140G | 0
10 | U14A U112A U115G | 1.46
11 | U14C A78G U85C A136G | 0
12 | U14C U45A A57U | 0.05
13 | U14C A30G A141G | 0.33
14 | U14C A57U U102C | 0.19
15 | U14C A67G A69U A107G A136G A138G | 0
16 | U14A U62C A107U A117G G126U | 0.08
17 | U14C A43U U62A G70A U104C | 0
18 | U14C U23C U81C | 0.92
19 | U14C C18U G72A A142G | 1.9
20 | U14C C16U A57G A94G | 0.84
21 | U14A U46C C68A U81C | 0.13

Row | Variant | self-cleavage
22 | U14A A43G U45C | 1.87
23 | U14C C37A U39C A138U | 1.22
24 | U14C A67G C131G A142G | 0.61
25 | U14C G88A U109C U132A | 0.07
26 | U14A A129C U132C | 0.99
27 | U14A U52A A142G | 1.13
28 | U14C A43G U91C U100A | 0.19
29 | U14C G86A U132C | 0.15
30 | U14C U29C A31G | 1.06
31 | U14C U47A G75A U87C G135A | 0.23
32 | U14C A59G A67G U73A | 0.2
33 | U14C U15C U20C A64G U81G | 0
34 | U14C U29A U73C U134C A136U | 1.31
35 | U14C A67G U85A U102A | 0.07
36 | U14C U62C U85C | 0.14
37 | U14C A79U U91C | 0.93
38 | U14C U45C A64G A140G | 0.34
39 | U14C U62C A117G G126A C146U | 0.11
40 | U14C U20C A78G A141G | 1.57
41 | U14C A43G U108C A124G | 0
42 | U14C U26C A65U U91C U100C G127A | 0.69

Row | Variant | self-cleavage
43 | U14A U52C A79U | 1.12
44 | U14C G126U A136G | 1.41
45 | U14A U39A U47C C56U | 0.22
46 | U14C A50G U52A | 0.98
47 | U14C U45C G48A A79G A142G | 1.08
48 | U14C U26C U87A | 0.16
49 | U14C U46C U85C | 0
50 | U14C U29C A77G | 0.36
51 | U14A U15C A77G U130C | 1.84
52 | U14C A64U C118A A121U | 0.36
53 | U14A C51A A69G U143A | 0.57
54 | U14A U52A A94G A136U | 0.68
55 | U14A A64G U100A U112A | 0.17
56 | U14C A50U U112C | 0.83
57 | U14C U46A A57U G97U | 0.05
58 | U14C C51U A79U | 0.25
59 | U14C A50G G125A | 0.67
60 | U14C A78U A129G | 1.72
61 | U14C C37U U109A C113U A142G | 0.89
62 | U14A A43G U100C U112A | 0.4
63 | U14C U39A A138G | 1.15

Row | Variant | self-cleavage
64 | U14C A43G U104C A129U | 1.75
65 | U14A A92G G106U | 0.14
66 | U14C U23C G86A C116U | 0.11
67 | U14A A24G A57G A65G | 0
68 | U14A A43U U81C U115A A138G | 2.51
69 | U14C A69G G127U | 0.46
70 | U14C U39A A50G | 0.83
71 | U14C G32C A42G U47C U115A A117G | 0
72 | U14C A65G U112C | 0.07
73 | U14C U52A G60C C110A A124U U130A | 0.04
74 | U14A U47C A78G | 1.78
75 | U14C U45C A50C U73A G126U | 2.63
76 | U14C C19A A22G U52C C63G U130C | 0.53
77 | U14C U45G G122A | 0.63
78 | U14C A59G A65G A141G | 0
79 | U13G U134C A141G | 0.92
80 | U14C A59G A69U | 0
81 | U14C U62C C95A | 0.01
82 | U14A G34A A117G | 1.21
83 | U14C G53A U85C A136G U143A | 0.18
